The list shows a part of the results. The list includes weakly bound sequences.

This assay deals with MaxL homodimer (UniProt P61244). The assay can be described thus: universal protein-binding microarray (PBM). The conditions noted are these: PBS-based mixture, 10 nM His-tagged protein dimer, 2% milk, 200 ng/uL BSA, 50 ng/uL salmon testes DNA, 0.02% TX-100; detection with Alexa 488 anti-His …; high values mean tight binding; most listed sequences are background and not binding sites; double strand, one strand shown.
Sequence of UniProt P61244 (P61244 whole entry): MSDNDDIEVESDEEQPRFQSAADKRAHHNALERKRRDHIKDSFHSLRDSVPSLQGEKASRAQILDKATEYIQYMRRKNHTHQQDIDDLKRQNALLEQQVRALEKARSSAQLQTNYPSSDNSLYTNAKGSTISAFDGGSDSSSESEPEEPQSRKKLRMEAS
Regarding CCCGTGTC, the binding signal (normalized occupancy) stood at 0.0814.
With ACCACACC, the binding signal (normalized occupancy) came out at 0.0856.
On to AAGGCGAA, for which the binding signal (normalized occupancy) came to 0.0734.
In the case of CAGCTGCA, the binding signal (normalized occupancy) amounted to 0.0759.
With AGTCGCTG, the binding signal (normalized occupancy) came to 0.0715.
In the case of TATCTTGA, the binding signal (normalized occupancy) was found to be 0.077.
As for CAGACCGC, the figure is 0.0735; as for CGAGAAGC, 0.0744.
As for CATGACGC, the figure is 0.0855; as for TACAGATA, 0.0789.
For CCTGCCGA, the binding signal (normalized occupancy) is 0.0703.
As for ATTGTGTC, the figure is 0.0772; as for ACTATGCT, 0.0755.
As for ACTATTTA, the figure is 0.0729; as for TGGCAACA, 0.0766.
Take ACATCCGA: the binding signal (normalized occupancy) is 0.0718.
For AGTGTAAG the value was 0.077; for ACGATGTC, 0.0826; for ATCTCAGC, 0.0746.
As to ATTACTAC, the binding signal (normalized occupancy) was found to be 0.0834.
Take AAGGACAA: the binding signal (normalized occupancy) came to 0.0706.
For the sequence AACTTCGA, the binding signal (normalized occupancy) came to 0.0706.
With ATCCCTGC, the binding signal (normalized occupancy) came to 0.0783.
For CTGCCCCA the value was 0.0784.
For CGTGCTTA the value was 0.0885; for CTCTAGCC, 0.0654; for GCTTGGAC, 0.0725.
On to CATAACCG, for which the binding signal (normalized occupancy) turned out to be 0.0784.
As to CGACGCTA, the binding signal (normalized occupancy) turned out to be 0.0724.
For CAGTTACG the value was 0.0717.
For AGGAGAAG the value was 0.0766; for TGCGCGAA, 0.0717.
As for CAGAGATC, the figure is 0.0735; as for GGTTCATA, 0.0826; as for GCAAAAGC, 0.0703.
Regarding CTATGCTA, the binding signal (normalized occupancy) was determined as 0.0768.
As for ATGTGCAA, the figure is 0.0875; as for CGATCTGC, 0.0717.
As for CTTTGGCC, the figure is 0.0687; as for CTTTCATA, 0.0748; as for ACAAATCA, 0.0773.
As for CGGGAAAC, the figure is 0.0725; as for AGGATGAC, 0.0813.
Consider ACACGGGT, for which the binding signal (normalized occupancy) amounted to 0.0852.
As for ATCCAGCG, the figure is 0.0704; as for CCGCTACC, 0.0743.
Turning to ACACGACC, the binding signal (normalized occupancy) was found to be 0.0822.
As to ATGACGCC, the binding signal (normalized occupancy) was 0.0776.
As for AGGATACT, the binding signal (normalized occupancy) was found to be 0.0731.
For AATAAGCG the value was 0.0726; for ACCCCACC, 0.0832.
As for AATCCCGC, the figure is 0.0737.
As for ATTACTTC, the figure is 0.074.
As for CCTCGGCG, the binding signal (normalized occupancy) was 0.0728.
For TACAAAAA the value was 0.0728; for TAGGCAGA, 0.069.
For TTCGACAA the value was 0.0727.
For AGGAAGGC, the binding signal (normalized occupancy) came out at 0.0736.
For CCGATCTC the value was 0.0688.
On to ACTCCATA, for which the binding signal (normalized occupancy) was 0.0898.
Regarding ATAACAGG, the binding signal (normalized occupancy) was found to be 0.0768.
Turning to CCGATCTA, the binding signal (normalized occupancy) turned out to be 0.0769.
Turning to AGGCCAAA, the binding signal (normalized occupancy) was found to be 0.0651.
For the sequence ATATTCTC, the binding signal (normalized occupancy) was 0.0852.
Consider CAGGCTTC, for which the binding signal (normalized occupancy) amounted to 0.0633.
For the sequence CCTCTTGC, the binding signal (normalized occupancy) worked out at 0.07.
As for ACCACTTC, the figure is 0.0785; as for CACTAAAC, 0.0792.
With AGCTGGAA, the binding signal (normalized occupancy) came out at 0.0709.
For TTCTCAAA the value was 0.0808.
As for GCAGAACA, the binding signal (normalized occupancy) turned out to be 0.0764.
For ATACAGGA the value was 0.0784; for AACAGGAT, 0.0759; for GTCTTTTA, 0.0741.
For AATGAACC the value was 0.0718.
For CAAAGTCA the value was 0.0818; for ACTGTGGG, 0.0757.
For TATCACCA, the binding signal (normalized occupancy) amounted to 0.0825.
Take CGGCCTTC: the binding signal (normalized occupancy) turned out to be 0.0657.
For ACCGCCCC the value was 0.0773; for AGACAGTG, 0.0728.
Regarding ACATCAAC, the binding signal (normalized occupancy) is 0.0756.
As for AGGCAGAG, the figure is 0.0677.
As for GCCGGACC, the figure is 0.0716; as for GCCATGCC, 0.0963.
For GAACGTGA the value was 0.0801.
ATCAAATC: the binding signal (normalized occupancy) stood at 0.0778.
As for AAATCTAG, the figure is 0.0755.
For TGCAAACA the value was 0.0821; for CGGAGGCA, 0.0694; for TTGTGAAA, 0.0759.
For the sequence AGTGGGTG, the binding signal (normalized occupancy) turned out to be 0.0863.
Regarding AAGTCCGA, the binding signal (normalized occupancy) came to 0.0717.
With CCCATCGC, the binding signal (normalized occupancy) came to 0.0739.
As for ACATGCCT, the figure is 0.0828; as for AAACGTGG, 0.123; as for ACTTCGAT, 0.0748.
Consider ATCCCATG, for which the binding signal (normalized occupancy) came to 0.0946.
As to AGGAAACG, the binding signal (normalized occupancy) was determined as 0.0765.
Take TCTAAAAA: the binding signal (normalized occupancy) turned out to be 0.0732.
With CACCCGCG, the binding signal (normalized occupancy) came to 0.0782.
AATCGGGC: the binding signal (normalized occupancy) came out at 0.071.
As for GTTTTTGA, the figure is 0.0713.
ACAAGGCT: the binding signal (normalized occupancy) was 0.0781.
As to CCGTGACC, the binding signal (normalized occupancy) amounted to 0.075.
As for GATCTGCC, the figure is 0.0734.
For ATTATGAG, the binding signal (normalized occupancy) worked out at 0.0848.
For CCAATAAC the value was 0.0763; for AAAATTGA, 0.0757.
For the sequence CCGATCCA, the binding signal (normalized occupancy) is 0.0802.
As for CTTCTCAC, the figure is 0.0785; as for CTGCTATC, 0.0712; as for CACGTTGC, 0.131.
For AACCAGTA the value was 0.074; for AATTGCCC, 0.0741; for GTCATAAA, 0.076.
On to CTCTCTCA, for which the binding signal (normalized occupancy) stood at 0.076.
ACACTGTA: the binding signal (normalized occupancy) is 0.0803.
Consider CCGAATAG, for which the binding signal (normalized occupancy) stood at 0.0733.
As for GCATTTGA, the figure is 0.0815; as for CAAAACTA, 0.0709.
As for GCGTCTCA, the figure is 0.0718; as for ACTTTGTA, 0.0753.
For GAATCAGA the value was 0.0774.
For GCGTAACA, the binding signal (normalized occupancy) came to 0.0739.
Consider AAGATCAT, for which the binding signal (normalized occupancy) amounted to 0.0825.
As to AGAATAAC, the binding signal (normalized occupancy) is 0.0823.
For GGACTACC the value was 0.0742; for CGTATCCC, 0.0805.
As for CATGTTAA, the figure is 0.0923; as for ATGCTAGA, 0.0794.
As for CAGAGTAA, the figure is 0.0689; as for GAGTAGGA, 0.0735; as for GCAACTAA, 0.0688.
Consider CTCTGGAA, for which the binding signal (normalized occupancy) is 0.0706.
For AGCTGGCG the value was 0.0693.
On to ATGAATTC, for which the binding signal (normalized occupancy) is 0.0754.
Consider ACAATGTC, for which the binding signal (normalized occupancy) came out at 0.079.
For CAGCTCCG the value was 0.0677; for CCGGTGTA, 0.0821; for AGACCTCC, 0.0702.
In the case of CCAGAGGG, the binding signal (normalized occupancy) was determined as 0.064.
Regarding ACTACGCG, the binding signal (normalized occupancy) was 0.0703.
In the case of CCGAGTAG, the binding signal (normalized occupancy) came to 0.0732.
As for CGACCTTC, the figure is 0.0701.
For the sequence CGGATTAC, the binding signal (normalized occupancy) was 0.0742.
As to AGGGCATG, the binding signal (normalized occupancy) was determined as 0.092.
As for CCGCCAGG, the figure is 0.0711; as for ACCCGTAG, 0.0728; as for ACGTCTTG, 0.0724.
As for CGCGAAAA, the binding signal (normalized occupancy) is 0.0702.
As for CTCATTTA, the figure is 0.0789; as for CAACGTTA, 0.0767.
Take ATGAGGGA: the binding signal (normalized occupancy) was 0.0908.
As for AATATGCT, the binding signal (normalized occupancy) came to 0.0802.
For CCGCGGCA the value was 0.0723.
Consider CGGTGTTC, for which the binding signal (normalized occupancy) was determined as 0.0776.
Regarding CTATTAGA, the binding signal (normalized occupancy) was 0.074.
For the sequence CTATTGAC, the binding signal (normalized occupancy) was found to be 0.0725.
Take CCGCAGCG: the binding signal (normalized occupancy) is 0.065.
As for ATAAGTAT, the figure is 0.0786; as for CAGGACAA, 0.074; as for AAGCCATA, 0.0746.
As to ACGGCATA, the binding signal (normalized occupancy) was 0.0754.
With CTGTATGC, the binding signal (normalized occupancy) turned out to be 0.076.
For AGTGAGTC the value was 0.0739; for ACTTACGC, 0.0773.
For GTTAATAA the value was 0.0741; for AGCCGAAA, 0.0717.
As for AGACCTCT, the figure is 0.0673; as for ATAGGAAA, 0.0763; as for CGGTTGTA, 0.0742.

The record behind these values is paper PMC4242493.
